The target in assay [1] is T1, pGBKT7-CDKG1 (BD-CDKG1) (Arabidopsis thaliana) (UniProt Q9FGW5).
T1 sequence: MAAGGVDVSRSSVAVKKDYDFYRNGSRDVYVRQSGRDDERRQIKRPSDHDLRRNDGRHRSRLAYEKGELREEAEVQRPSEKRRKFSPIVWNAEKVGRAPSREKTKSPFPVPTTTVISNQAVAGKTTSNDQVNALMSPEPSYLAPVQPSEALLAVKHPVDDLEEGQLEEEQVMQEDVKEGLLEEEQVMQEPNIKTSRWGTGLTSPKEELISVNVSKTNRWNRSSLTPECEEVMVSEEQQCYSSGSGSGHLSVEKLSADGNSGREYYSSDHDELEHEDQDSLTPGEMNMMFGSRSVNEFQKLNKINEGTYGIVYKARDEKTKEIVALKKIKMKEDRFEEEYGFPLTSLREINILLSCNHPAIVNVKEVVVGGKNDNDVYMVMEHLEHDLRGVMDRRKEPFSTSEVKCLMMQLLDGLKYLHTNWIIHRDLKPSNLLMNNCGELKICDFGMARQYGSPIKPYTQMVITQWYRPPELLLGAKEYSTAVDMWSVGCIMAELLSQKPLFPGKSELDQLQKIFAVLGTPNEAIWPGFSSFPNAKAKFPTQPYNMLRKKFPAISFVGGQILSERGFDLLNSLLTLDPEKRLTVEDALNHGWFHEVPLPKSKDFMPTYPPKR
Briefly: two-hybrid; AH109 yeast co-transformed with bait and prey plasmids (pGBKT7, pGADT7), plated on SD/-Trp/-Leu and replica plated on SD/-Trp/-Leu/-His/-Ade, 4 days; also reciprocal orientation and SINA2 deletion constructs.

The target of assay [2] is T2, YFPC-CDKG1 (Arabidopsis thaliana) (UniProt Q9FGW5).
T2 sequence: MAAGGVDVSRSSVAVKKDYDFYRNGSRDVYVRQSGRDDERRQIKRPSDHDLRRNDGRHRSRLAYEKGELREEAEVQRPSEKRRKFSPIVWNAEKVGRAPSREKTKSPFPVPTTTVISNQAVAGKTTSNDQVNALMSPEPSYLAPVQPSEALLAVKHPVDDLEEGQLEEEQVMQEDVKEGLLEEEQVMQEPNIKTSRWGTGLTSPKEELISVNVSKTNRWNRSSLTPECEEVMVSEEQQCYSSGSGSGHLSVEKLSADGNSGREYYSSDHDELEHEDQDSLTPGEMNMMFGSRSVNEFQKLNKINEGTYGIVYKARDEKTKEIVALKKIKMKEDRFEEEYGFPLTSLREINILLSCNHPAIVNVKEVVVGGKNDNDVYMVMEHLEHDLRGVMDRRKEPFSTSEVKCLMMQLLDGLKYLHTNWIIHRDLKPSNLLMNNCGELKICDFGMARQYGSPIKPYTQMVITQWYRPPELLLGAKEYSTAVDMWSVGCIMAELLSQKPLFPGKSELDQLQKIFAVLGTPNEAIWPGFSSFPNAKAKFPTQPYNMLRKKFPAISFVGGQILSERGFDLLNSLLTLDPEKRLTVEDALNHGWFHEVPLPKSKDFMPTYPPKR
Briefly: split reporter; BiFC: YFPN and YFPC fusions co-expressed by agroinfiltration in N. benthamiana leaf epidermal cells, confocal microscopy.

The target of assay [3] is T3, BD-SINA2(1-80) (Arabidopsis thaliana) (UniProt Q93WE4).
T3 sequence: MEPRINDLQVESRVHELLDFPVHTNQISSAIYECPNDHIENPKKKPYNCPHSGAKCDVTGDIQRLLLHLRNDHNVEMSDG
Briefly: two-hybrid; AH109 yeast co-transformed with bait and prey plasmids (pGBKT7, pGADT7), plated on SD/-Trp/-Leu and replica plated on SD/-Trp/-Leu/-His/-Ade, 4 days; also reciprocal orientation and SINA2 deletion constructs.

The target of assay [4] is T4, pGBKT7-SINA2 (BD-SINA2) (Arabidopsis thaliana) (UniProt Q93WE4).
T4 sequence: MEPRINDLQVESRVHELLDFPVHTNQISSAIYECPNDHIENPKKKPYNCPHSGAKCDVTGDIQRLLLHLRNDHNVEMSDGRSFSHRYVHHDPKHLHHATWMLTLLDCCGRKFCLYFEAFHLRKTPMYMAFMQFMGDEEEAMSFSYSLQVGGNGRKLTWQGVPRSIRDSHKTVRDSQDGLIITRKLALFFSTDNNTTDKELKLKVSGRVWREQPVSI
The assay is described as above.

The target in assay [5] is T5, BD-SINA(77-216) (Arabidopsis thaliana) (UniProt Q93WE4).
T5 sequence: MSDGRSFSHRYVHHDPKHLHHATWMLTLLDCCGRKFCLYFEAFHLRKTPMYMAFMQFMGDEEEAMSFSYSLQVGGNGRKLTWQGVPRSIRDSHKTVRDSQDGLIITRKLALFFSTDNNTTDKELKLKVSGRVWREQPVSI
Described as above.

These are yes or no findings as the source states them, for the method shown. For part of these data: Binding seen in cells or lysates may run through a third protein. Some results given as binding are weak or reduced against the parent protein; the word gives no strength. For part of these data: Sequences can lack the tags named with a protein.

The text below walks through data of publication PMC6048857.

B1: SINA2 as prey plasmid (AD-SINA2) (protein, UniProt Q93WE4 1-216)
chain: MEPRINDLQVESRVHELLDFPVHTNQISSAIYECPNDHIENPKKKPYNCPHSGAKCDVTGDIQRLLLHLRNDHNVEMSDGRSFSHRYVHHDPKHLHHATWMLTLLDCCGRKFCLYFEAFHLRKTPMYMAFMQFMGDEEEAMSFSYSLQVGGNGRKLTWQGVPRSIRDSHKTVRDSQDGLIITRKLALFFSTDNNTTDKELKLKVSGRVWREQPVSI
Consider B1, for which the binding result in assay [1] is reported as “binds”.

B2: YFPN-SINA2 (protein, UniProt Q93WE4 1-216)
chain: MEPRINDLQVESRVHELLDFPVHTNQISSAIYECPNDHIENPKKKPYNCPHSGAKCDVTGDIQRLLLHLRNDHNVEMSDGRSFSHRYVHHDPKHLHHATWMLTLLDCCGRKFCLYFEAFHLRKTPMYMAFMQFMGDEEEAMSFSYSLQVGGNGRKLTWQGVPRSIRDSHKTVRDSQDGLIITRKLALFFSTDNNTTDKELKLKVSGRVWREQPVSI
For B2, the binding result in assay [2] was “binds”.

B3: pGADT7-CDKG1 (AD-CDKG1) (protein, UniProt Q9FGW5-1 1-612)
chain: MAAGGVDVSRSSVAVKKDYDFYRNGSRDVYVRQSGRDDERRQIKRPSDHDLRRNDGRHRSRLAYEKGELREEAEVQRPSEKRRKFSPIVWNAEKVGRAPSREKTKSPFPVPTTTVISNQAVAGKTTSNDQVNALMSPEPSYLAPVQPSEALLAVKHPVDDLEEGQLEEEQVMQEDVKEGLLEEEQVMQEPNIKTSRWGTGLTSPKEELISVNVSKTNRWNRSSLTPECEEVMVSEEQQCYSSGSGSGHLSVEKLSADGNSGREYYSSDHDELEHEDQDSLTPGEMNMMFGSRSVNEFQKLNKINEGTYGIVYKARDEKTKEIVALKKIKMKEDRFEEEYGFPLTSLREINILLSCNHPAIVNVKEVVVGGKNDNDVYMVMEHLEHDLRGVMDRRKEPFSTSEVKCLMMQLLDGLKYLHTNWIIHRDLKPSNLLMNNCGELKICDFGMARQYGSPIKPYTQMVITQWYRPPELLLGAKEYSTAVDMWSVGCIMAELLSQKPLFPGKSELDQLQKIFAVLGTPNEAIWPGFSSFPNAKAKFPTQPYNMLRKKFPAISFVGGQILSERGFDLLNSLLTLDPEKRLTVEDALNHGWFHEVPLPKSKDFMPTYPPKR
For B3, the binding entry is reported as “no binding” in assay [3], “binds” in assay [4] and “binds” in assay [5].

B4: YFPN-SINA2(1-80) (domain or fragment, UniProt Q93WE4 1-80)
chain: MEPRINDLQVESRVHELLDFPVHTNQISSAIYECPNDHIENPKKKPYNCPHSGAKCDVTGDIQRLLLHLRNDHNVEMSDG
As to B4, in assay [2], the binding result is “no binding”.
